# Results published in the BET-seq Pho4 binding data (Le et al. 2018).
# The list shows a part of the results. These are noisy estimates, calculated here from bound and input reads.
# Biological target: T1, Pho4 (S. cerevisiae) (UniProt P07270)
# T1 sequence: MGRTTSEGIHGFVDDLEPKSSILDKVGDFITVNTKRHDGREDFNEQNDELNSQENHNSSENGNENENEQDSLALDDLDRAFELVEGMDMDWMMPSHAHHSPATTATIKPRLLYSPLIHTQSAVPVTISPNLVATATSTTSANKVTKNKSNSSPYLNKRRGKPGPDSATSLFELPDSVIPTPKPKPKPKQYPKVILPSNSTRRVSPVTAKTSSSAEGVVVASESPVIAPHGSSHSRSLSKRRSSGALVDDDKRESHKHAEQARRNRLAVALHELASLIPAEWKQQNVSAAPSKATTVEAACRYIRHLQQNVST
# Experiment: relative binding free energy (BET-seq); higher = weaker binding
# Details: reference: library average
row,Sequence,relative binding free energy [kJ/mol]
1,TTCGACACGTGGTGAG,0.209
2,GAATGCACGTGAAGTT,1.34
3,TCGGGCACGTGTAAAG,-0.126
4,GGATCCACGTGTGGGT,0.293
5,TGGTTCACGTGCATGA,0.711
6,TTAAACACGTGGCGTT,-0.377
7,TAGAGCACGTGGGGTT,-0.879
8,ATTGGCACGTGGAAGA,0.167
9,GGGTTCACGTGTAATA,1.88
10,AGTCGCACGTGGCGGG,-0.418
11,GTGCTCACGTGTGTAT,0.628
12,GTTAGCACGTGGCTTG,0.0418
13,CATGGCACGTGCTAGG,0.0418
14,AACGGCACGTGTGAGG,-0.0418
15,GAAAACACGTGGATGG,0.586
16,TCGTTCACGTGGGTCT,0.126
17,TTATACACGTGGTCAT,-0.293
18,TAATGCACGTGGTGAG,-0.669
19,CTTTTCACGTGTAGTC,1.63
20,TATCTCACGTGCGGGG,0.586
21,AGTGGCACGTGGGCGA,-1.3
22,GAGGTCACGTGTTCGG,0.586
23,TGTTGCACGTGTAGTA,0.293

row,Sequence,relative binding free energy [kJ/mol]
1,TTCTTCACGTGGCGTT,0.795
2,GTGATCACGTGTTGTT,0.711
3,AATAGCACGTGATGGG,-0.586
4,ATCAACACGTGAGGTA,1.59
5,GATTACACGTGGTGGG,0.753
6,AGTGGCACGTGAGAGA,0.837
7,GAACGCACGTGTCGGG,0.586
8,ATCTCCACGTGTGTGT,0.0418
9,TCTAGCACGTGGGGGT,-0.418
10,GGTCACACGTGAGGGG,0.962
11,GGCGACACGTGTGGCT,1
12,AGAAGCACGTGGGGCG,-1.51
13,AGCGTCACGTGAGGAA,1.88
14,TGGAACACGTGGGGAA,-0.711
15,GTCGGCACGTGGGGAC,-0.251
16,GGGCGCACGTGGCTGT,-0.418
17,AGAAACACGTGAGGTG,1.05
18,ATGGGCACGTGATGTA,-0.46
19,GTTTTCACGTGTGGAT,1.59
20,TATATCACGTGTGTTG,0.544
21,AGGTGCACGTGACGGC,0.586
22,GAGGACACGTGGGGTA,-0.711
23,CTGGGCACGTGTTTCG,-0.335

row,Sequence,relative binding free energy [kJ/mol]
1,CAATGCACGTGGGATT,-0.167
2,AGTTGCACGTGGTTCG,-0.0837
3,ACAGACACGTGTTAGT,0.669
4,TGGCACACGTGACTGG,1.3
5,AGCGTCACGTGGTGCT,-0.251
6,TAGGTCACGTGACTGT,1
7,GCGGTCACGTGTAGGA,1.13
8,TTCGGCACGTGCGGGT,-0.46
9,GTGCTCACGTGTCGAG,1.17
10,ATTGGCACGTGGCGTT,-0.711
11,ATTTACACGTGTGGAT,1.09
12,TGGAACACGTGGAGAG,0.335
13,TTTGTCACGTGACGGT,0.544
14,GGCTGCACGTGTGCGC,0.46
15,CGTGGCACGTGTGTAG,0.0418
16,TTATCCACGTGTTAGA,0.167
17,AGTCGCACGTGTATGT,0.293
18,ATTTTCACGTGTGGGC,1.3
19,CTGATCACGTGGTGAA,0.92
20,TGTTGCACGTGTTTAA,-0.209
21,AGTAGCACGTGGAGGC,-0.962
22,TTGGGCACGTGATTCT,0.418
23,ATAGACACGTGAGGAT,1

row,Sequence,relative binding free energy [kJ/mol]
1,TTAACCACGTGTTAGT,-0.293
2,AATTACACGTGGGTCT,0.0418
3,CTTAGCACGTGTGGCA,-0.167
4,GTGGACACGTGTACGG,0.335
5,GTGATCACGTGGTTTG,1
6,GGTAACACGTGATTTA,0.962
7,ATGGACACGTGGTAAG,-0.669
8,GTAAACACGTGGGGCG,-0.46
9,TTAAGCACGTGAATGT,0.628
10,TTTGTCACGTGCAGTC,0.628
11,TACTGCACGTGTTGGT,0.418
12,GTAGTCACGTGCAAGG,0.586
13,GGCTACACGTGTGTTA,0.418
14,CGGGACACGTGCTGTT,0.335
15,TGGTACACGTGATGGA,1.21
16,GTGTGCACGTGAAAAT,0.628
17,TTTTGCACGTGTTTAT,-0.209
18,TTTCACACGTGGTTTG,0.293
19,AGTAGCACGTGTTGGC,-0.377
20,TTAAGCACGTGCGTGT,-0.669
21,TTACGCACGTGGTGGG,-0.753
22,TTGAGCACGTGTAGTT,-0.251
23,GTCGTCACGTGAGTAG,1.26

row,Sequence,relative binding free energy [kJ/mol]
1,GTTTCCACGTGAAAGT,1.88
2,GGGTTCACGTGTACGT,1.26
3,GTTGTCACGTGTCGGA,1.42
4,ATAGCCACGTGGAGTG,-0.544
5,GTGCCCACGTGAGTGG,0.46
6,TTAATCACGTGCGGGG,0.502
7,TCGGGCACGTGAGTCT,0.46
8,AAGGTCACGTGAGTGC,1.17
9,TAGTTCACGTGTAGGG,1.3
10,ATGGACACGTGGGTTG,-0.586
11,GCCTGCACGTGTTTGG,0.293
12,ACGGTCACGTGACGGG,1.09
13,GTTTGCACGTGTAGAG,0.837
14,TATGACACGTGGCTTT,-0.418
15,TTTTCCACGTGGTGTC,-0.209
16,CGTGGCACGTGGTGAT,-0.837
17,GTGGACACGTGGGTAT,-0.251
18,TTGAGCACGTGTATAG,-0.0418
19,AAGTCCACGTGTGTTT,0.126
20,GTGTTCACGTGTGGAC,0.92
21,CGTCGCACGTGGGTCG,-0.711
22,TTGGTCACGTGATGTC,1.13
23,TGGGACACGTGGACAT,0.711
